In assay [1] the target is T1, Akt1 kinase, endogenous (Drosophila melanogaster (endogenous in adult heads)) (UniProt Q8INB9).
T1 sequence: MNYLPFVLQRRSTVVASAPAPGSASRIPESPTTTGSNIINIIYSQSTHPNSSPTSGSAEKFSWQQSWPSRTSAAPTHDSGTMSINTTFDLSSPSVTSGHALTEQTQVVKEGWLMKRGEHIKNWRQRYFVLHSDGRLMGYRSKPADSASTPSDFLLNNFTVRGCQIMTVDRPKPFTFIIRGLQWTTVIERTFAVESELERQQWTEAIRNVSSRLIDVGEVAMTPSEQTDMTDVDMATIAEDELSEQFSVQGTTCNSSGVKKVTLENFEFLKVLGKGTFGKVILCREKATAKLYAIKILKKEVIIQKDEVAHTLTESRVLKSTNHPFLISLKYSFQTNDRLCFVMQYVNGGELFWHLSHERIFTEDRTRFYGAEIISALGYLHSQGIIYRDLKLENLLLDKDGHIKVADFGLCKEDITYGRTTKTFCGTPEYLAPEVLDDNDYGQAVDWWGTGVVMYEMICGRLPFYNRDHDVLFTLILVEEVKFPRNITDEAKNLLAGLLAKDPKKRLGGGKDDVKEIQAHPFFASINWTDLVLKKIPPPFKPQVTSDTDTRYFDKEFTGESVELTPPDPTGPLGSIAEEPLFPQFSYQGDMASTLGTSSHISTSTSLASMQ
The experiment in a line: co-IP; endogenous proteins from 150 heads of cycG HR7 homozygous mutant animals; IP with rabbit anti-Akt1, detection with rat anti-Wdb; unrelated serum as mock control.

Chains of the proteins cited; added tags and fusions are not shown.
UniProt Q9VB23: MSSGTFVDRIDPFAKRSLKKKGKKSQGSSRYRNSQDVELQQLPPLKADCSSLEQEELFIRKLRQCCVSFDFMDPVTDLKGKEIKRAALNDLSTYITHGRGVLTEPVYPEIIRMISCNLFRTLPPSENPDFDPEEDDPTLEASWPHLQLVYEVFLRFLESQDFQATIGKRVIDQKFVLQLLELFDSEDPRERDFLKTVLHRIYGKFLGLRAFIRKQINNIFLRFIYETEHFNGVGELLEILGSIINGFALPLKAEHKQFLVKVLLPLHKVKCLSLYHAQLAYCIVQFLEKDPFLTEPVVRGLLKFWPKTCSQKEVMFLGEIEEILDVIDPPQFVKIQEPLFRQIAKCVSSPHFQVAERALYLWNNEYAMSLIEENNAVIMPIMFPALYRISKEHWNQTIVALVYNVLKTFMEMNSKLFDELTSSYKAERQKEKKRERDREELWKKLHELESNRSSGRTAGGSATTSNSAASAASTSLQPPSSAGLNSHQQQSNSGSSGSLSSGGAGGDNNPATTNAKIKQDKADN

Assay [2] concerns the target T2, Cyclin G, endogenous (Drosophila melanogaster (endogenous in embryos and heads)) (UniProt Q95TJ9).
T2 sequence: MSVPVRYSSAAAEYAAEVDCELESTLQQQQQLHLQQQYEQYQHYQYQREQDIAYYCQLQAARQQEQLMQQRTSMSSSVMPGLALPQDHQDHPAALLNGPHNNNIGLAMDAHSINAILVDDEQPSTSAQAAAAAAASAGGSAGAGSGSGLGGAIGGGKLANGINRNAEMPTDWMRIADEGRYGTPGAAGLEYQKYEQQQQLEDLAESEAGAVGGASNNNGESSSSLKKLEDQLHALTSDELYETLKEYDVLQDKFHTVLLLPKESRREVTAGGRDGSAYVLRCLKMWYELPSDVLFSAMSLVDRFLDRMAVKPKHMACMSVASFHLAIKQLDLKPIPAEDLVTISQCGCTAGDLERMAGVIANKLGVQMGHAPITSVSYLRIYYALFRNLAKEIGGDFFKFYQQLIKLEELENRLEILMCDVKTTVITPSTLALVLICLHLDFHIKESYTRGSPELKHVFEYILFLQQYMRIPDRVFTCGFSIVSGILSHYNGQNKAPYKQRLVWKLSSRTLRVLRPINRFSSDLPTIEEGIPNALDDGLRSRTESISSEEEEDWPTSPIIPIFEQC
The experiment in a line: co-IP; endogenous proteins from about 500 embryos (0-24 h); IP with guinea pig anti-CycG or anti-Wdb antibodies, blots with rat antisera; preimmune serum as mock control.

Assay [3] concerns the target T1, Akt1 kinase, endogenous (Drosophila melanogaster (endogenous in adult heads)). As to the kind of experiment: condition: only head extracts of wild type animals (CycG present); co-IP; endogenous proteins from 150 heads of wild type animals; IP with rabbit anti-Akt1, detection with rat anti-Wdb; unrelated serum as mock control.
Assay [4] concerns the target Widerborst, full length, yeast two-hybrid fusion (Drosophila melanogaster) (UniProt Q9VB23). The experiment in a line: two-hybrid; Brent two-hybrid system in yeast EGY40; both orientations (CycG in pEG or pJG, full length Wdb in pEG or VP16); blue staining of colonies; empty vectors as negative controls.
The target in assay [5] is Widerborst, endogenous (Drosophila melanogaster (endogenous in embryos and heads)) (UniProt Q9VB23). The experiment in a line: co-IP; endogenous proteins from about 500 embryos (0-24 h); IP with guinea pig anti-CycG or anti-Wdb antibodies, blots with rat antisera; preimmune serum as mock control.

No constants are given. Whether binding was seen depends on the method and setting. For part of these data: In cells and extracts the contact can be indirect. Some results given as binding are weak or reduced against the parent protein; the word gives no strength. For part of these data: Tags and fused reporters may be left off the sequences shown.

In the case of “Widerborst, endogenous (from UniProt Q9VB23 1-524)”, the values for the binding result in assay [1], in assay [2] and in assay [3] were “binds”, “binds” and “no binding”, respectively.

B1: Cyclin G C-terminal region including the conserved Cyclin domains (AS 215-566), yeast two-hybrid fusion (domain or fragment, UniProt Q95TJ9 215-566)
chain: SNNNGESSSSLKKLEDQLHALTSDELYETLKEYDVLQDKFHTVLLLPKESRREVTAGGRDGSAYVLRCLKMWYELPSDVLFSAMSLVDRFLDRMAVKPKHMACMSVASFHLAIKQLDLKPIPAEDLVTISQCGCTAGDLERMAGVIANKLGVQMGHAPITSVSYLRIYYALFRNLAKEIGGDFFKFYQQLIKLEELENRLEILMCDVKTTVITPSTLALVLICLHLDFHIKESYTRGSPELKHVFEYILFLQQYMRIPDRVFTCGFSIVSGILSHYNGQNKAPYKQRLVWKLSSRTLRVLRPINRFSSDLPTIEEGIPNALDDGLRSRTESISSEEEEDWPTSPIIPIFEQC
For B1, the binding entry in assay [4] was “binds”.

B2: Cyclin G, full length protein (AS 1-566), yeast two-hybrid fusion (protein, UniProt Q95TJ9 1-566)
chain: MSVPVRYSSAAAEYAAEVDCELESTLQQQQQLHLQQQYEQYQHYQYQREQDIAYYCQLQAARQQEQLMQQRTSMSSSVMPGLALPQDHQDHPAALLNGPHNNNIGLAMDAHSINAILVDDEQPSTSAQAAAAAAASAGGSAGAGSGSGLGGAIGGGKLANGINRNAEMPTDWMRIADEGRYGTPGAAGLEYQKYEQQQQLEDLAESEAGAVGGASNNNGESSSSLKKLEDQLHALTSDELYETLKEYDVLQDKFHTVLLLPKESRREVTAGGRDGSAYVLRCLKMWYELPSDVLFSAMSLVDRFLDRMAVKPKHMACMSVASFHLAIKQLDLKPIPAEDLVTISQCGCTAGDLERMAGVIANKLGVQMGHAPITSVSYLRIYYALFRNLAKEIGGDFFKFYQQLIKLEELENRLEILMCDVKTTVITPSTLALVLICLHLDFHIKESYTRGSPELKHVFEYILFLQQYMRIPDRVFTCGFSIVSGILSHYNGQNKAPYKQRLVWKLSSRTLRVLRPINRFSSDLPTIEEGIPNALDDGLRSRTESISSEEEEDWPTSPIIPIFEQC
Regarding B2, in assay [4], the binding result is reported as “binds”.

B3: Cyclin G, endogenous (protein, UniProt Q95TJ9 1-566)
chain: MSVPVRYSSAAAEYAAEVDCELESTLQQQQQLHLQQQYEQYQHYQYQREQDIAYYCQLQAARQQEQLMQQRTSMSSSVMPGLALPQDHQDHPAALLNGPHNNNIGLAMDAHSINAILVDDEQPSTSAQAAAAAAASAGGSAGAGSGSGLGGAIGGGKLANGINRNAEMPTDWMRIADEGRYGTPGAAGLEYQKYEQQQQLEDLAESEAGAVGGASNNNGESSSSLKKLEDQLHALTSDELYETLKEYDVLQDKFHTVLLLPKESRREVTAGGRDGSAYVLRCLKMWYELPSDVLFSAMSLVDRFLDRMAVKPKHMACMSVASFHLAIKQLDLKPIPAEDLVTISQCGCTAGDLERMAGVIANKLGVQMGHAPITSVSYLRIYYALFRNLAKEIGGDFFKFYQQLIKLEELENRLEILMCDVKTTVITPSTLALVLICLHLDFHIKESYTRGSPELKHVFEYILFLQQYMRIPDRVFTCGFSIVSGILSHYNGQNKAPYKQRLVWKLSSRTLRVLRPINRFSSDLPTIEEGIPNALDDGLRSRTESISSEEEEDWPTSPIIPIFEQC
For B3, the binding result in assay [5] is on record as “binds”.

The values above are taken from PMC4537266.
